The list shows a part of the results.
test system: PfAP2-HC AP2 domain (GST-tagged); test: gcPBM binding intensity (ln(normalized median fluorescence intensity)); higher = stronger DNA binding
Method in brief: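 An Agilent 4 × 180k array of primer-extended double-stranded 36-bp intergenic genomic probes, with negative controls, was incubated for 1 h with GST-tagged P. falciparum DNA-binding domains expressed in E. coli. Alexa488 anti-GST antibody detected bound protein, scanned at 488 nm. Binding intensity is the highest Masliner-normalised natural-log median intensity across replicate spots of either probe orientation.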

Compared with “AAAAAAAAAATTGAAAGTACAAATATGTATTATATA [XGTACX_site2455]”, “TAATAGTATATAAAAAGTACATAATAAGATATGAAA [XGTACX_site1000]” is higher in “gcPBM binding intensity (ln)” value: 9.7 for the first, 9.81 for the second.

Going from “ATTATGTGCCAATACACACACACATATATATATATA [CACACA_site468]” to “TAAAATATGTCATGTGGTACATGAATAGCTTTTATT [XGTACX_site3809]”, the “gcPBM binding intensity (ln)” value rises from 10 to 10.1.

First: AAAAAAAAAAAAAACACACAAATCATAAATAAATAT [CACACA_site6362]
Second: AATAAAAATAGGAATACGCACACGATGATTAATTTA [CACACA_site1836]
The “gcPBM binding intensity (ln)” value of the first is lower: 9.75 for the first, 10 for the second.

First: AATTAACCCTAATTTTGTACATATTCCTTTTCTCAT [XGTACX_site46]
Second: GTTACTATGATTAATGCATGCAAATACCAAAAAAAA [TGCATGCA_site590]
The “gcPBM binding intensity (ln)” value of the first is higher: 9.93 for the first, 9.61 for the second.

First: TATACCACACGATATACACACTTGTAGACATCTTTT [CACACA_site6232]
Second: TTATATTCTAGAGACACATGCGATTTTTTATTTTAT [TGCATGCA_site649]
The “gcPBM binding intensity (ln)” value of the first is higher: 9.83 for the first, 9.77 for the second.

Compared with “TGGAATAATCCGCGTACACACATATATATATTAAGA [CACACA_site4253]”, AATTAATGGCTAAAGGTGCACAATATATATATTACA is higher in “gcPBM binding intensity (ln)” value: 9.83 for the first, 9.98 for the second.

Compared with “AAAAAAAAATTTAAGGGTACATACAAATATATATAT [XGTACX_site5078]”, “TAATACGAATGAGGCACACACCTAGTATACATGCTT [CACACA_site6438]” is higher in “gcPBM binding intensity (ln)” value: 9.63 for the first, 9.88 for the second.

First: TCCCTTCATCTTTTATGTACTAAAAAATTGAATAAT [XGTACX_site2172]
Second: AATTAAAATTTTTGAAGTACACTCAAAATAAGTTAT [XGTACX_site4490]
The “gcPBM binding intensity (ln)” value of the first is lower: 9.41 for the first, 9.48 for the second.

Compared with “CTTTTGAACAGTTCATGTACTCAATTTTTTAATAGT [XGTACX_site6498]”, “TAATACCTATGGTATAGTACGTATTATTTTATAGAG [XGTACX_site2078]” is lower in “gcPBM binding intensity (ln)” value: 9.58 for the first, 9.43 for the second.

Compared with “TTTTTTTTTTTGAAATGTACATTCCAAAAACTGATA [XGTACX_site1495]”, “TATATATATATATATTTTTTTTTTTTATGCACATGG [CACACA_negctrl_site1573]” is lower in “gcPBM binding intensity (ln)” value: 9.67 for the first, 9.41 for the second.

Compared with “TATTTATAAAAAAATACATGCATTTTTTTTTTTTTT [TGCATGCA_site65]”, “TGTTAATTCTTAAGAATTTCCATAATTTCTTCTTTT [CACACA_negctrl_site1065]” is higher in “gcPBM binding intensity (ln)” value: 9.36 for the first, 9.52 for the second.

Compared with “TTTGCCATATGACACACACACATGTAAACCCCCTTT [CACACA_site6873]”, “TAATACAAAAACAATGTTCTTTCAAACATAAACATA [CACACA_negctrl_site1628]” is lower in “gcPBM binding intensity (ln)” value: 10.2 for the first, 9.6 for the second.

First: TATTTTTATTGGTACTGTACCTATTTAGAAATACAT [XGTACX_site6663]
Second: ATGATTTCATTTGAGAGTACGTAAAAATAATACGTA [XGTACX_site4958]
The “gcPBM binding intensity (ln)” value of the first is higher: 9.64 for the first, 9.36 for the second.

Compared with “TTTTAATGATATATGAGTACACATTGTTTTTTATAA [XGTACX_site1072]”, “ATATAATGATGGAAAAGAAAAGAAATAAAAAAAAAA [CACACA_negctrl_site1170]” is lower in “gcPBM binding intensity (ln)” value: 9.6 for the first, 9.59 for the second.

Going from “TTGACATATAAGATATGTACTAATACACACACATAT [XGTACX_site1904]” to “AAATAATAAAACAACACACAAATAGTTAAAATAGAA [CACACA_site5007]”, the “gcPBM binding intensity (ln)” value rises from 10.1 to 10.2.

Compared with “ACATTCTATATATACACACATACATAATAAAGAAAG [CACACA_site2771]”, “CATATATAGATATATACACACATACATACATACATA [CACACA_site7748]” is higher in “gcPBM binding intensity (ln)” value: 9.93 for the first, 10.1 for the second.

Compared with “TGCATATGCATTATTTGTACATATGTAGATAATTAT [XGTACX_site6930]”, “AAAAATTACAAATACAAACACACAAATGTTTTTCAT [CACACA_site3551]” is higher in “gcPBM binding intensity (ln)” value: 9.63 for the first, 9.78 for the second.

First: AATAAAATAAATATATGTACATATATATAACCATTA [XGTACX_site5549]
Second: AGAGAAAGAAGGGAGAAAAAATAAAATAAAATAAAA [GTGCAC_negctrl_site299]
The “gcPBM binding intensity (ln)” value of the first is higher: 9.84 for the first, 9.5 for the second.

First: AATAAAAAAAAACTCATGCACACAATATTATGAAAA [CACACA_site664]
Second: TATATATATATATATATTTTAAATGATATAAATGGT [TGCATGCA_negctrl_site152]
The “gcPBM binding intensity (ln)” value of the first is higher: 9.99 for the first, 9.63 for the second.

First: AATTAATTAAATTAATGTACACATATATTTGTATTC [XGTACX_site2341]
Second: CCACATTAAAAAAAAACACACATATATTATATATAT [CACACA_site1155]
The “gcPBM binding intensity (ln)” value of the first is lower: 9.68 for the first, 9.85 for the second.

First: AATACATGAATATGTAGTACAGAAAAAAAAAATATA [XGTACX_site1945]
Second: AAAATGACATAATGGGGAATAGACATATACATAAAT [CACACA_negctrl_site1669]
The “gcPBM binding intensity (ln)” value of the first is lower: 9.78 for the first, 9.81 for the second.

Going from “GTTACAGAGAATGTTGTGCACATATCAATAATATAT [GTGCAC_site9671]” to “TATAAACCATAATTAACACACAAAATAAGTTACATA [CACACA_site3227]”, the “gcPBM binding intensity (ln)” value rises from 9.74 to 9.89.

In the case of “ATAATAATAAAAATTATACATAAGTATATGCACATA [XGTACX_negctrl_site583]”, the “gcPBM binding intensity (ln)” value is reported as 9.63.

From the supplement of paper PMC11417369
